Data from PubChem BioAssay (NCATS).
This list was built around the results that the source calls inconclusive (neither active nor inactive); the mix of calls is not that of the screen. For some of these results: Potencies of inconclusive entries are left out as doubtful fits. Activity calls are given as the source filed them. Unless noted, the call rests on the fitted dose curve; in most records, active means well fitted curve in the direction sought with a large enough effect; inconclusive means small, poorly fitted or top-dose-only effect, or another doubt; inactive means no such curve, though single readings can be large; an effect the other way counts as inactive or inconclusive.

Key:
[1] = qHTS of pediatric cancer cell lines to identify multiple opportunities for drug repurposing: Primary screen for SK-N-MC cells (AID 1347093); details: SK-N-MC viability, CellTiter-Glo luminescence, 48 h; activity change, negative = cytotoxic: at 46 µM (top of the series);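 further: plate controls were DMSO neutral control for no effect and bortezomib for full effect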
In short: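 Metabolically active cells were quantified by ATP-dependent luminescence (CellTiter-Glo, 15 min at room temperature) following 48 h treatment. Cells had been plated at 500-1,000 per well and settled for 5 h beforehand.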

[2] = Primary qHTS for inhibitors of nuclear receptor binding SET domain protein 2 (NSD2) in an RCH-ACV wild type WT cells (2C) (AID 1645877); details: activity change, negative = cell killing: at 44.9 µM (top of the series) unless noted; further: nearly all actives have a fitted effect of over 70% in size; further: potency means the concentration at half of the fitted maximal effect
WaGa = assay: qHTS assay to identify novel small-molecules to repurpose for Merkel cell carcinoma treatment (AID 1296009); details: MCC and control cell lines, CellTiter-Glo viability, 72 h; series mostly up to 46 µM; further: nearly all actives have a fitted effect of over 60% in size; further: potency means the concentration at half of the fitted maximal effect
In short: (§1)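 Luminescence from CellTiter-Glo, read 10 min after addition at room temperature, reported viability following a 72 hr, 37 degree celsius treatment with NPC or MIPE compounds in titration; values normalized to plate controls.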

[3] = qHTS of pediatric cancer cell lines to identify multiple opportunities for drug repurposing: Primary screen for A673 cells (AID 1347092); details: A673 Ewing sarcoma viability, CellTiter-Glo ATP luminescence, 48 h; activity change, negative = cytotoxic: at 46 µM (top of the series); further: on the % scale 0 is the no-effect control and ±100 the full control effect; nearly all actives have a fitted effect of over 45% in size
In short: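 Cell viability of A673 measured by CellTiter-Glo ATP luminescence after 48 hours compound exposure. Dilution series spanned 0.78 nM to 46 µM (MIPE, 11-point) or 0.59 nM to 46 µM (NPC, 8-point); bortezomib 2.3 uM positive control.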

[4] = qHTS of pediatric cancer cell lines to identify multiple opportunities for drug repurposing: Primary screen for SK-N-SH cells (AID 1347098);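 further: DMSO served as neutral control and bortezomib at 2.3 µM as positive control; on the % scale 0 is the no-effect control and ±100 the full control effect; nearly all actives have a fitted effect of over 65% in size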
In short: (§2)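 Cells (500-1,000/well) rested 5 h, then received compounds for 48 h; metabolically active cells were measured by CellTiter-Glo luminescence. Final concentrations spanned up to 46 µM (MIPE, 11-point) or 0.59 nM-46 µM (NPC, 8-point) in primary screens, 11-point in follow-ups.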

[5] = qHTS of pediatric cancer cell lines to identify multiple opportunities for drug repurposing: Primary screen for Rh41 cells (AID 1347108);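 further: luminescence drop marks cytotoxic hits; nearly all actives have a fitted effect of over 70% in size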
In short: (§3)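 500-1,000 cells/well; 5 h pre-incubation 37 °C/5% CO2; compound pinned; 48 h; CellTiter-Glo, 15 min RT; luminescence. MIPE 11-pt from 0.78 nM, NPC 8-pt from 0.59 nM final. Bortezomib 2.3 µM final as positive control.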

[6] = A High-Content qHTS Against Drug Library for the Identification of Small Molecules that Inhibit DYT1 Early Onset Primary Dystonia-Associated Cell Pathology (AID 1645839; calls by dose curve; further: potency means the concentration at half of the fitted maximal effect)
In short: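 Induced EGFP-delE TorsinA cells are imaged after 48 h of compound treatment. Punctate fusion-protein distribution gives the %pathology value, while nuclei counts flag toxicity. Wild-type EGFP-hTOR1A cells define the normal pattern.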

[7] = target: Cytochrome P450 2D6 (Homo sapiens) (UniProt P10635); assay: Cytochrome P450 family 2 subfamily D member 6 (CYP2D6) small molecule antagonists: luciferase biochemical (cell-free) qHTS assay (AID 1645840; active means well fitted curve in the direction sought with a large enough effect in the repeat runs; inconclusive means weak or mixed curves; inactive means no such curve, though single readings can be large; an effect the other way counts as inactive or inconclusive; further: nearly all actives have a fitted effect of over 55% in size; further: potency means the concentration at half of the fitted maximal effect; on activity change, negative = inhibition: on the % scale 0 is the no-effect control and ±100 the full control effect)
In short: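 P450-Glo CYP2D6 system: proluciferin substrate converted by enzyme to luciferin, read by luminescence proportional to activity. Enzyme-substrate mix with compound 10 min at room temperature, then NADPH regeneration 1 h before detection reagent.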

SKOV3 = assay: Primary qHTS to identify gynecologic anti-cancer compounds using libraries of approved drugs and bioactive compounds (AID 1345084); details: Gynecologic cancer cell panel viability, ATPlite luminescence, 48 h; series mostly up to 57.5 µM; further: nearly all actives have a fitted effect of over 55% in size; further: potency means the concentration at half of the fitted maximal effect
In short: (§4)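 Cytotoxicity screen measuring ATP content by luciferase luminescence. Each compound is applied at five concentrations for 48 h at 37 C with 5% CO2.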

[8] = Drug repurposing screens with cells derived from glioblastoma tumor samples (AID 1345199); details: GBM patient neurospheres viability, ATP luminescence, 48 h; Potency: tumour line A unless noted; activity, negative = cell killing: at 46 µM (top of the series), tumour line A unless noted; further: nearly all actives have a fitted effect of over 40% in size; further: potency means the concentration at half of the fitted maximal effect; on activity, negative = cell killing: on the % scale 0 is the no-effect control and ±100 the full control effect
In short: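 Primary testing used CD133+ neurospheres from four GBM patients, seven concentrations, 48 h exposure and ATP-based viability; confirmation added three slower-growing patient lines.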

[9] = qHTS of pediatric cancer cell lines to identify multiple opportunities for drug repurposing: Primary screen for OHS-50 cells (AID 1347103); details: OHS-50 osteosarcoma viability, CellTiter-Glo luminescence, 48 h; activity change, negative = cytotoxic: at 57.3 µM (top of the series); further: potency means the concentration at half of the fitted maximal effect; nearly all actives have a fitted effect of over 40% in size
In short: as §2

[10] = Primary qHTS for small molecule stabilizers of the endoplasmic reticulum resident proteome: Secreted ER Calcium Modulated Protein (SERCaMP) assay (AID 1508630); details: SH-SY5Y GLuc-SERCaMP (Gaussia luciferase released on ER calcium loss) secretion, thapsigargin, luminescence; activity change, negative = inhibition: at 38.4 µM (top of the series) unless noted; further: potency means the concentration at half of the fitted maximal effect; on activity change, negative = inhibition: on the % scale 0 is the no-effect control and ±100 the full control effect
In short: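 The SH-SY5Y reporter protocol was run at 3 concentrations up to 38.3 uM (primary) or 11 concentrations (follow-up): 16 h compound, 100 nM thapsigargin for 4 h, then extracellular luciferase luminescence.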

[11] = Primary qHTS for inhibitors of nuclear receptor binding SET domain protein 2 (NSD2) in an isogenic RCH-ACV NSD2 p.E1099K mutant (9B) (AID 1645876); details: activity change, negative = viability loss: at 44.9 µM (top of the series) unless noted; further: nearly all actives have a fitted effect of over 70% in size; further: potency means the concentration at half of the fitted maximal effect; on activity change, negative = viability loss: on the % scale 0 is the no-effect control and ±100 the full control effect
CAOV3 = assay: Primary qHTS to identify gynecologic anti-cancer compounds using libraries of approved drugs and bioactive compounds (AID 1345084); details: Gynecologic cancer cell panel viability, ATPlite luminescence, 48 h; series mostly up to 57.5 µM; further: nearly all actives have a fitted effect of over 55% in size; further: potency means the concentration at half of the fitted maximal effect
In short: as §4

[12] = qHTS of pediatric cancer cell lines to identify multiple opportunities for drug repurposing: Primary screen for BT-37 cells (AID 1347094);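 further: plate controls were DMSO for no effect and bortezomib for full effect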
In short: as §3

UISO = assay: qHTS assay to identify novel small-molecules to repurpose for Merkel cell carcinoma treatment (AID 1296009); details: MCC and control cell lines, CellTiter-Glo viability, 72 h; series mostly up to 46 µM; further: nearly all actives have a fitted effect of over 60% in size; further: potency means the concentration at half of the fitted maximal effect
In short: as §1
Tags describe the fitted curve by direction and shape.

UniProt P10635, sequence (P10635 whole entry, looked up): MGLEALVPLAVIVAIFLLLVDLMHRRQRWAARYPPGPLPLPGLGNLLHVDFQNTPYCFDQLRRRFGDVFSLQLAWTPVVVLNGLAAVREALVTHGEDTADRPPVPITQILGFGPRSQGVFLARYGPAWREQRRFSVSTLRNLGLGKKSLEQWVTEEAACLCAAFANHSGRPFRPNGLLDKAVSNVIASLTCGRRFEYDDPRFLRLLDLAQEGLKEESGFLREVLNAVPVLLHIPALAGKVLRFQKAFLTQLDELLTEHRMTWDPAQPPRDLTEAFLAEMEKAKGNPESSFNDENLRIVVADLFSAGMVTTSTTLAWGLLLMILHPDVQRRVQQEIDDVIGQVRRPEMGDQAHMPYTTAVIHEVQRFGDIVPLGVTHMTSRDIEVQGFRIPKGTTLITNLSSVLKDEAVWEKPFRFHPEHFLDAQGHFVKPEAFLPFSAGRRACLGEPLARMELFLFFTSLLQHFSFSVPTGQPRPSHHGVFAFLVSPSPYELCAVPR

Compound: Oc1ccccc1-c1nnco1
- Potency [1]: inactive
- Potency [2]: inactive
- Potency (WaGa): inactive

Compound: Cc1cc(O)c2c(O)c3c(O)cccc3cc2c1
- Potency [3]: inactive
- Potency [1]: inactive
- Potency [4]: inactive
- Potency [5]: inactive
- Potency [6]: inconclusive [inhibitor, single point]
- Potency [7]: inactive
- Potency (WaGa): inactive
- Potency (SKOV3): inconclusive [cytotoxic, single point]
- Potency [8]: active: 14.1 µM

Compound: C[N+](C)(CCOc1ccccc1)Cc1cccs1
- Potency [9]: inconclusive [cytotoxic, partial curve, poor fit]
- Potency [5]: inactive
- Potency [10]: inactive
- Potency [11]: inconclusive [inhibitor, single point]
- Potency [2]: active: 26.6 µM
- Potency (WaGa): inconclusive [inhibitor, single point]
- Potency (CAOV3): inconclusive [cytotoxic, partial curve, poor fit]
- Potency (SKOV3): inactive
- Potency [8]: inconclusive [inhibitor, partial curve]

Compound: Clc1ccc2c(c1)Nc1ccccc1S2
- Potency [12]: inactive
- Potency [9]: inconclusive [cytotoxic, partial curve]
- Potency [5]: inactive
- Potency [11]: inactive
- Potency (UISO): inconclusive [inhibitor, partial curve, poor fit]

Compound: [O-][n+]1cccc(CO)c1
- Potency [3]: inactive
- Potency [12]: inactive
- Potency [5]: inactive
- Potency [7]: inactive
- Potency [11]: inactive
- Potency (WaGa): inactive
- Potency (SKOV3): inconclusive [cytotoxic, single point]

Compound: O=C(O)c1ccc(OCCCOc2ccc(C(=O)O)cc2)cc1
- activity change, negative = inhibition [10]: inconclusive: -35.3% [inhibitor]
- Potency (WaGa): inactive

Compound: C[n+]1ccccc1/C=N/O
- Potency [4]: inactive
- activity change, negative = inhibition [10]: inconclusive: -30.2% [inhibitor]
- Potency (WaGa): inactive
- Potency [8]: inactive

Compound: Nc1c(NC/C=C\COc2cc(CN3CCCCC3)ccn2)c(=O)c1=O
- Potency [10]: inconclusive [inhibitor, full curve]
- Potency [7]: inconclusive [inhibitor, partial curve]
- Potency (WaGa): inactive
- Potency [8]: inconclusive [inhibitor, partial curve]
